{"source": "PubChem BioAssay AID1345082", "about": "(National Center for Advancing Translational Sciences (NCATS), 2018)", "note": "Out of some 94,000 compounds screened, about 4,000 (4.3%) were called active. Inconclusive means that the source gave no clear call. Such entries were picked first, then a sample of the others. Calls follow the shape of the dose curve; as a rule, active = well fitted inhibition curve with a large enough effect; inconclusive = small, poorly fitted or top-dose-only effect; inactive = no such curve, though single readings can be large or run the other way. Potencies beside an inconclusive call are fits to weak or partial responses and may not hold up. % is scaled to controls: 0 for no effect and ±100 for the full control effect; potency is read from the fitted curve at half-maximal effect; tags tell the direction and shape of the fitted curve.", "data": [{"assay": "Cytotoxic Profiling in NIH 3T3 Cell Line of Diverse Libraries Using Quantitative High-Throughput Screening; also: nearly all actives have a fitted effect of over 55% in size", "conditions": "NIH 3T3 viability, CellTiter-Glo ATP luminescence, 48-72 h; activity change, negative = cytotoxicity: at 96.7 µM (top of the series) unless noted; series mostly up to 96.7 µM", "summary_of_the_method": "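ATP-dependent luminescence (CellTiter-Glo) served as the viability signal for NIH 3T3 cells treated with compound for 48 or 72 hr at 37 °C.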", "values": [{"smiles": "COc1ccccc1-c1ccc(C(=O)N2CCC(C(=O)NCc3cccc(Cl)c3)CC2)cc1", "Potency": "inconclusive: 17.8 µM [inhibitor, full curve]"}, {"smiles": "CN1CCCN(S(=O)(=O)c2cccc(Cl)c2)c2ccccc21", "Potency": "inconclusive: 44.7 µM [inhibitor, partial curve, poor fit]"}, {"smiles": "Cn1cc(CN2CCc3nc(C(=O)NCC4CC4)oc3CC2)cn1", "outcome": "inactive [at 138 µM]"}, {"smiles": "CCCn1c(C)cnc1CC1CCN(C(=O)NCCc2ccccc2)CC1", "activity change, negative = cytotoxicity": "inactive: -17%"}, {"smiles": "COCC(=O)NC1CCCN(Cc2ccc(-c3cc(C)cc(C)c3)cc2)C1", "note": "(stereo unspecified)", "Potency": "inconclusive: 39.8 µM [inhibitor, partial curve, poor fit]"}, {"smiles": "CCCN(CC1CCOC1)C(=O)NCCC(C)C", "note": "(stereo unspecified)", "outcome": "inactive"}, {"smiles": "Cc1cccc(-c2nc3ccc(C(=O)N(C)C)cc3o2)n1", "Potency": "inconclusive: 35.5 µM [inhibitor, partial curve]"}, {"smiles": "O=C(NC1CCN(c2nccc(Nc3ccccc3F)n2)CC1)c1ccc(Cl)nc1", "Potency": "inconclusive: 31.6 µM [inhibitor, partial curve]"}, {"smiles": "COc1ccc(C2Cn3cnc(C(=O)N4CCC(C(=O)Nc5ccccc5)CC4)c3CO2)cc1", "note": "(stereo unspecified)", "activity change, negative = cytotoxicity": "inactive: 0.467%"}, {"smiles": "Cc1ccc(CN2CCCc3nc(C)nc(-c4ccc(O)cc4)c3C2)cc1", "Potency": "inconclusive: 50.1 µM [inhibitor, partial curve, poor fit]"}, {"smiles": "C#CCNC(=O)c1nc(-c2cccc(C(F)(F)F)c2)c2ccccn12", "Potency": "inconclusive: 100 µM [inhibitor, partial curve, poor fit]"}, {"smiles": "CN(C)[C@@H]1[C@@H](NC(=O)C2(S(=O)(=O)c3ccccc3)CC2)[C@H]2CCO[C@H]21", "outcome": "inactive"}, {"smiles": "COc1cc(=O)n2c(c1C(=O)Nc1cc(Cl)cc(Cl)c1)CCCC2", "outcome": "inactive"}, {"smiles": "CC(=O)c1ccc(NC(=O)N2C[C@@H]3C[C@H](C2)c2ccc(NC(=O)Nc4cccc(F)c4)c(=O)n2C3)cc1", "activity change, negative = cytotoxicity": "inactive: -21%"}, {"smiles": "Cn1ncc2c(C(=O)NCCc3ccc(F)cc3)cc(-c3ccc(C(F)(F)F)cc3)nc21", "activity change, negative = cytotoxicity": "inactive: -11.7%"}, {"smiles": "O=C(NCCCc1ccccc1F)[C@H]1CCC[C@@H](O)C1", "activity change, negative = cytotoxicity": "inactive: -7.03%"}, {"smiles": "O=S(=O)(Cc1noc([C@@H]2C[C@@H](O)CN2Cc2cc3ccccc3o2)n1)c1ccc(F)cc1", "activity change, negative = cytotoxicity": "inactive: -25.9%"}, {"smiles": "Clc1ccc(CNC[C@H]2Cn3c(-c4cccc(Cl)c4)cnc3CO2)cc1", "Potency": "active: 44.7 µM"}, {"smiles": "Cc1cnc(C)n1C1CCN(C(=O)CCC2CCCC2)CC1", "activity change, negative = cytotoxicity": "inactive: -29.4%"}, {"smiles": "CN(C)c1ccc(CNC(=O)C2(c3ccc(NS(C)(=O)=O)cc3)CCCCC2)cc1", "activity change, negative = cytotoxicity": "inactive: -28.1%"}, {"smiles": "CC(C)c1ccc(NC(=O)c2cc3n(n2)CC(c2ccc(Cl)cc2)OC3)cc1", "note": "(stereo unspecified)", "activity change, negative = cytotoxicity": "inactive: -19.6%"}, {"smiles": "COc1cccc(CC(=O)NCCn2ccn3nc(-c4ccc(C)cc4C)cc3c2=O)c1", "Potency": "inconclusive: 50.1 µM [inhibitor, partial curve, poor fit]"}, {"smiles": "COc1ncccc1-c1cnc2n[nH]c(-c3ccc4c(c3)OCO4)c2n1", "Potency": "active: 44.7 µM"}, {"smiles": "CC1=NS(=O)(=O)N(C)C=C1C(=O)OCc1nc(-c2ccc(Br)cc2)no1", "Potency": "inconclusive: 44.7 µM [inhibitor, partial curve, poor fit]"}, {"smiles": "COCCC(=O)N1CC(Oc2ccc(-c3noc(-c4ccccc4)n3)cc2)C1", "Potency": "inconclusive: 50.1 µM [inhibitor, partial curve, poor fit]"}, {"smiles": "Fc1ccc(OC2CN(Cc3ccccc3)C2)c(F)c1", "activity change, negative = cytotoxicity": "inactive: -6.11% [at 138 µM]"}, {"smiles": "CCCN(CC1CC1)C(=O)[C@@H]1COCC(=O)N1Cc1ccccc1", "activity change, negative = cytotoxicity": "inactive: -17.4%"}, {"smiles": "CC1(CNCc2ccccc2)COc2ccc(C(=O)NCc3cccs3)cc2N1", "note": "(stereo unspecified)", "Potency": "inconclusive: 100 µM [inhibitor, partial curve]"}, {"smiles": "O=C(CC1CCCCC1)N1CCC2(CC1)NC(=O)N(c1ccc(F)cc1)N2", "Potency": "inconclusive: 39.8 µM [inhibitor, partial curve, poor fit]"}, {"smiles": "CCn1nccc1C(=O)N1CCC2(CC1)NCCc1c2[nH]c2ccccc12", "activity change, negative = cytotoxicity": "inactive: -20.7%"}, {"smiles": "CCCC(=O)N1Cc2ccccc2CC2(CCCCN2CC)C1", "note": "(stereo unspecified)", "Potency": "inconclusive: 89.1 µM [inhibitor, single point]"}, {"smiles": "CNC(=O)c1cccc(-c2cnc3[nH]cc(CC(=O)N(C)c4ccccc4)c3c2)c1", "Potency": "active: 20 µM"}, {"smiles": "CCNC(=O)C1CCCN(S(=O)(=O)c2ccccc2)CCC(=O)NCC1", "note": "(stereo unspecified)", "outcome": "inactive"}, {"smiles": "CN(C)c1ccc(C(=O)N2CCC3(CC2)NC(=O)N(Cc2ccc(F)cc2)C3=O)cc1", "Potency": "inconclusive: 50.1 µM [inhibitor, single point]"}, {"smiles": "Fc1ccc(-c2cc3c(cn2)CN(Cc2ccncc2)CCN3)cc1Cl", "Potency": "inconclusive: 56.2 µM [inhibitor, partial curve, poor fit]"}, {"smiles": "Cc1ccc(C)c(CN2CCC3(CCC(=O)N(CCc4ccncc4)C3)CC2)c1", "outcome": "inactive"}, {"smiles": "COc1ccc(OC)c(CN2CCc3ncc(C(=O)NCc4ccccc4)n3CC2)c1", "Potency": "inconclusive: 89.1 µM [inhibitor, partial curve]"}, {"smiles": "Cc1ccc(-n2c(C3CCN(C(=O)Cc4ccccc4C)CC3)n[nH]c2=O)cc1", "Potency": "inconclusive: 10 µM [inhibitor, full curve, poor fit]"}, {"smiles": "CN(Cc1cccnc1)C(=O)CCC1CCN(S(=O)(=O)c2ccccc2)CC1", "Potency": "inconclusive: 44.7 µM [inhibitor, partial curve, poor fit]"}, {"smiles": "COCCC1(N(C)C)CCN(C(=O)CC2CCCCC2)CC1", "outcome": "inactive"}, {"smiles": "O=C(NCc1cccs1)c1noc(-c2ccc(F)cc2)n1", "Potency": "inconclusive: 56.2 µM [inhibitor, partial curve, poor fit]"}, {"smiles": "CC(=O)N1CCN(c2nccc(Nc3ccccc3F)n2)CC1", "activity change, negative = cytotoxicity": "inactive: -25.7% [at 138 µM]"}, {"smiles": "O=C(NCCCc1ccccc1)c1cc(-c2cc(Cl)cc(Cl)c2)c2cccn2n1", "Potency": "inconclusive: 50.1 µM [inhibitor, partial curve, poor fit]"}, {"smiles": "CS(=O)(=O)N1CC2(CCN(CC3CCCCC3)C2)Cc2ccccc21", "note": "(stereo unspecified)", "activity change, negative = cytotoxicity": "inactive: -22.2%"}, {"smiles": "CC(=O)Nc1cccc(-c2ccc3c(n2)c(=O)ncn3Cc2ccccc2)c1", "Potency": "inconclusive: 112 µM [inhibitor, single point]"}, {"smiles": "CCc1nc2c(c(-c3ccc(OC)cc3)n1)CCN([S+](=O)([O-])c1cccs1)CC2", "Potency": "inconclusive: 39.8 µM [inhibitor, partial curve]"}]}]}
